Test results taken from the RNAGym collection of RNA variant scans (doi:10.1073/pnas.2313332121).
Variants at the background level are over-represented here.

B1: TPR 5TU (parent)
chain: GGAUCUUCUCGAUCUAACAAAAAAGACAAAUCUGCCACAAAGCUUGAGAGCAUCUUCGGAUGCAGAGGCGGCAGCCUUCGGUGGCGCGAUAGCGCCAACGUUCUCAACUAUGACACGCAAAACGCGUGCUCCGUUGAAUGGAGUUUAUCAUG

Variants of: B1
Test: polymerase ribozyme fitness, log enrichment relative to wild type (log ratio); higher = more active; in vitro selection for triplet polymerase activity
In short: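 Mutant libraries of each subunit of a heterodimeric triplet polymerase ribozyme were built by PCR and transcribed. Each library went through one round of in vitro selection in triplicate: annealing with biotinylated primer, partner subunit and triplets, frozen incubation at −7 °C, gel excision of extended constructs, streptavidin-bead capture and RT-PCR. Input and output libraries were Illumina-sequenced; only genotypes with ≥10 input reads and ≥1 read per output were kept. Fitness is log2(genotype enrichment/wild-type enrichment), using inverse-variance-weighted replicate averages.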

| Variant | polymerase ribozyme fitness (log ratio) |
| --- | --- |
| C38U A52G C103G C118U U139C A147U | ≤ -4.2 |
| C38A G67U C87G | ≤ -4.2 |
| C38U A47C U53A A142C | -3.39 |
| C38A G70A C85G U127C | ≤ -4.2 |
| C38U A73G C103A | -3.99 |
| C38A C85A | -2.61 |
| C38U A91G C93A C118U U144G | ≤ -4.2 |
| C38U A52C U55G C93U U134G G136A A138G | ≤ -4.2 |
| C38A U56A G71A G83C A137G | ≤ -4.2 |
| C38G U55G C69U G70A C96G A110C C125U U139G U144G A150U | ≤ -4.2 |
| C38U A52G G92A G124U | -3.84 |
| C38A C99G G100A | ≤ -4.2 |
| C38U A47C U82A C93U A98G A142U | ≤ -4.2 |
| C38A C54U A73U | -2.15 |
| C38U C57A C87A | ≤ -4.2 |
| C38U A52G G70U C85U G117U | -3.27 |
| C38U C63U A73G C87U | -0.21 |
| C38U C54A A73G C93A C96G C116U G136C | ≤ -4.2 |
| C38A G83A | -0.746 |
| C38A C54A C123G U151G | ≤ -4.2 |
| C38G G42C G71C C95A C96A | ≤ -4.2 |

| Variant | polymerase ribozyme fitness (log ratio) |
| --- | --- |
| C38U C57U G68U C95U C103U | ≤ -4.2 |
| C38A G65U C96G A107G G126A | ≤ -4.2 |
| C38G A47G G50C C51A G59A A60C C95G C132U | ≤ -4.2 |
| C38G C43U G81U G86U A98G C103G A150G U151C | ≤ -4.2 |
| C38U C87A C116A A120C | ≤ -4.2 |
| C38U C57G G58A C116A A138G | ≤ -4.2 |
| C38A U56A G59A C87G | ≤ -4.2 |
| C38U A52C C57U G71A C79U C85G G94A G133U | ≤ -4.2 |
| C38U C85U C95G C105A | -3.93 |
| C38G G88C G124C | ≤ -4.2 |
| C38G G50C G65U G84A C96U C99U U111G G143A | ≤ -4.2 |
| C38A U90A G92A C103G G117U A138G | ≤ -4.2 |
| C38A A91G | -3.39 |
| C38A A91C | ≤ -4.2 |
| C38G G70A C87A U104A A106C C116A U144G | ≤ -4.2 |
| C38A C76G C93A U148C | ≤ -4.2 |
| C38A C99A U111G C116U | ≤ -4.2 |
| C38U C76A C87A C108U G112C G141A | ≤ -4.2 |
| C38A U56A G68C U78G G92A G126U C132G | ≤ -4.2 |
| C38U A47G U53A G141C | -2.86 |
| C38G A52C G65C C95U C118G A122U | ≤ -4.2 |

| Variant | polymerase ribozyme fitness (log ratio) |
| --- | --- |
| C38A G58A C96G C129G G143A | -2.67 |
| C38G A64C G70A C118U U130G A137U | ≤ -4.2 |
| C38A C85A A122G U148G | ≤ -4.2 |
| C38G G50A G86U C116A U151C | ≤ -4.2 |
| C38A C51U C95A C131A | -3.34 |
| C38G A52G C75G | ≤ -4.2 |
| C38A U109G G140U | ≤ -4.2 |
| C38A G50C C96A | -4.12 |
| C38G A142C | -1.24 |
| C38A C87U A98G A106C C125A U135A C149A | ≤ -4.2 |
| C38A C72A A107C U109G | ≤ -4.2 |
| C38G G68C C85G G126A U139G G140A C149G | ≤ -4.2 |
| C38U A89U A106U C132U U151G | ≤ -4.2 |
| C38G A49U U55A C87A G126A G143C | ≤ -4.2 |
| C38U A41G G70C G86A G88A C103U U127C G133C | ≤ -4.2 |
| C38U C76A C108U U135G G140C A150U | ≤ -4.2 |
| C38A A113G U127C U151C | ≤ -4.2 |
| C38A C114U C118U A150U | ≤ -4.2 |
| C38A G84U A97G U130G | ≤ -4.2 |
| C38U A49G U55G A60C G92C U144G | ≤ -4.2 |
| C38U A49U U77G C103G | ≤ -4.2 |

| Variant | polymerase ribozyme fitness (log ratio) |
| --- | --- |
| C38U C57U A73G G88A | ≤ -4.2 |
| C38G C69U G70C U102G A122C C125U | ≤ -4.2 |
| C38U C63A A66C U82G G92C A98C G100A A120C C125U | ≤ -4.2 |
| C38U C76G | ≤ -4.2 |
| C38U A39C G92U U102G | ≤ -4.2 |
| C38G C51U C95A C99G A106U C125A U134A | ≤ -4.2 |
| C38A G50U | -0.722 |
| C38A G48C G80A G84U G152U | ≤ -4.2 |
| C38G A49C C76G C93U C125A U135A G143C U144A | ≤ -4.2 |
| C38U C93U A137G U148C | ≤ -4.2 |
| C38A C85G C96U C108A A119G G133C | ≤ -4.2 |
| C38U C63G A97U G143C | -3.67 |
| C38A U56G G58C A97U C105A | ≤ -4.2 |
| C38U A60U C87U C95G U135A | ≤ -4.2 |
| C38A C93A G136A | -1.47 |
| C38A U55A U135A U146C | -1.06 |
| C38U A49U G128U U144C | ≤ -4.2 |
| C38U C51U C76A C79A A97U G100A C103G A106G A120G | ≤ -4.2 |
| C38A G42C G48A U82G G84A A97U | ≤ -4.2 |
| C38A U56A A137G | -2.08 |
